In experiment [1] the target is Acetylcholinesterase (Electrophorus electricus, UniProt O42275).
Experiment [2] concerns the target Acetylcholinesterase (Homo sapiens, UniProt P22303).
Experiment [3] has as its target Cholinesterase (Homo sapiens, UniProt P06276).

Acetylcholinesterase (Electrophorus electricus, UniProt O42275), sequence (O42275 whole entry): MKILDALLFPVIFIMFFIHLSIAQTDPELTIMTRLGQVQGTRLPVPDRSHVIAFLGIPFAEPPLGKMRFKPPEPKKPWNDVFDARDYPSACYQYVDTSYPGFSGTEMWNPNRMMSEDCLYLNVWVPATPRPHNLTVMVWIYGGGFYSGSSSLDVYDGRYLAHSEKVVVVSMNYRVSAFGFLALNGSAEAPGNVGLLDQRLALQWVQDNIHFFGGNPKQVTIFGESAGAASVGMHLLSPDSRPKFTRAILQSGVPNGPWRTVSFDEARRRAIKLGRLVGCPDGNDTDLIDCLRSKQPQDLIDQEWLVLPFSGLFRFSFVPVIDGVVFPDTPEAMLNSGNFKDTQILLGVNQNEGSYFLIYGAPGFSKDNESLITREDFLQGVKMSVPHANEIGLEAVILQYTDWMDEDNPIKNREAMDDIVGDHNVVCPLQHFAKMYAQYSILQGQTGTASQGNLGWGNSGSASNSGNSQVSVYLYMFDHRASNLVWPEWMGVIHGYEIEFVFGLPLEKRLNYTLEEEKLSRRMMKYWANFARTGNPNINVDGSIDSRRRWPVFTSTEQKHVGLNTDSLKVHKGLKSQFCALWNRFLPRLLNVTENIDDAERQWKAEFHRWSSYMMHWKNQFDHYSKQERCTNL
Acetylcholinesterase (Homo sapiens, UniProt P22303), sequence (P22303 whole entry): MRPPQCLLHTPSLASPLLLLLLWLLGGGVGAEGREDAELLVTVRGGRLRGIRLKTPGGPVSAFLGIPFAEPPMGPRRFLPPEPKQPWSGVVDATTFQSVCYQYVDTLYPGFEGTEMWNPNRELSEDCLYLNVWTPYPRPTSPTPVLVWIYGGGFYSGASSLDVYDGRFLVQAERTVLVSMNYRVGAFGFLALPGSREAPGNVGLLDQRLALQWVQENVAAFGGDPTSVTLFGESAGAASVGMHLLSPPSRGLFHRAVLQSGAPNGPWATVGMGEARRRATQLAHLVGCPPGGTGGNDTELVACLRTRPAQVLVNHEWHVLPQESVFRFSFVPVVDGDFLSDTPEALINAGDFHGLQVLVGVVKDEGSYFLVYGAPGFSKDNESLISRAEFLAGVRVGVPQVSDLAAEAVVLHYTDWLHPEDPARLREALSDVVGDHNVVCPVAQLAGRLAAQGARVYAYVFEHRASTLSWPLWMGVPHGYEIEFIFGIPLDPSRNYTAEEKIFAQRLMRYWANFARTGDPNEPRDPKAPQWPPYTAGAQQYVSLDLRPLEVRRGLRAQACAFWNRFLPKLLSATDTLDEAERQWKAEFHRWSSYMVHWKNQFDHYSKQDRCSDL
Cholinesterase, sequence (P06276 whole entry): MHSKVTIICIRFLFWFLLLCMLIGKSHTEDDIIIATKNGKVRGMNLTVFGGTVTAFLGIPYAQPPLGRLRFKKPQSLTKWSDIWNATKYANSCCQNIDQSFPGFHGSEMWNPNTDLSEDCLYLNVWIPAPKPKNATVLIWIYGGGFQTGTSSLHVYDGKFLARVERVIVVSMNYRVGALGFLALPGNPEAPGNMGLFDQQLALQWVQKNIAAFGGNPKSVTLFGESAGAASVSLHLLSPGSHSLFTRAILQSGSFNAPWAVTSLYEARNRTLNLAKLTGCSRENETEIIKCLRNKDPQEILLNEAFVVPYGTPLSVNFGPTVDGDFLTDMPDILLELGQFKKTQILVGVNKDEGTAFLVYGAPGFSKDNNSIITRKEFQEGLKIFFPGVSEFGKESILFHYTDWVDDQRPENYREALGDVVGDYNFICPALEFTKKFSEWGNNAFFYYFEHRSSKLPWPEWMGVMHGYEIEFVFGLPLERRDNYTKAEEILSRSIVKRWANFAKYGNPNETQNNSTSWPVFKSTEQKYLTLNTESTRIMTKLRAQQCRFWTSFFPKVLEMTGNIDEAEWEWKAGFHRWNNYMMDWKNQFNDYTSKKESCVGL

The IC50 is the point on the concentration scale where inhibition reaches its midpoint. Low readings indicate greater potency in that assay, high ones weaker potency in that assay. Consider `CCOC(=O)C1=C(C)Nc2nc3c(c(N)c2C1c1cccc([N+](=O)[O-])c1)CCCC3` (configuration not stated), for which the IC50 is 110 nM in experiment [1], 191 nM in experiment [2] and over 100000 nM in experiment [3].

Turning to `CCOC(=O)C1=C(C)Nc2nc3c(c(N)c2C1c1cccc(OC)c1)CCCC3` (configuration not stated), the IC50 in experiment [1] is 61 nM; in experiment [2] it was 58 nM; in experiment [3], over 100000 nM.

As to `CCOC(=O)C1=C(C)Nc2nc3c(c(N)c2C1c1ccc(F)cc1)CCCC3` (configuration not stated), the values for the IC50 in experiment [1], in experiment [2] and in experiment [3] were 52 nM, 193 nM and over 100000 nM, respectively.

As for `CCOC(=O)C1=C(C)Nc2nc3c(c(N)c2C1c1ccccc1OC)CCCC3` (configuration not stated), the IC50 in experiment [1] is 160 nM; in experiment [2] it was 234 nM; in experiment [3], over 100000 nM.

Take `CCOC(=O)C1=C(C)Nc2nc3c(c(N)c2C1c1ccccc1[N+](=O)[O-])CCCC3` (configuration not stated): the 50% inhibitory concentration (IC50) worked out at 304 nM in experiment [1], 338 nM in experiment [2] and 4800 nM in experiment [3].

For `CCOC(=O)C1=C(C)Nc2nc3c(c(N)c2C1c1ccc(OC)cc1)CCCC3` (configuration not stated), the values for the IC50 in experiment [2] and in experiment [3] were 105 nM and over 100000 nM, respectively.

(Values after ChEMBL document CHEMBL1138213, “Novel multipotent tacrine-dihydropyridine hybrids with improved acetylcholinesterase inhibitory and neuroprotective activities as potential drugs for the treatment of Alzheimer's disease” (J Med Chem, 2006).)
